The full ranking holds about 110,000 compounds; the median of “z-score” is about -0.1, and the highest 2% start at about 2. Some of the results follow.
What follows are compounds tested against Metabotropic glutamate receptor 8 (Rattus norvegicus) (UniProt P70579) (assay: mGluR8 Gi/Go-coupled signaling modulation – cell-based, rat, thallium flux, HTS, primary screen (AID 488969)). Conditions: HEK293 rat mGluR8, GIRK (G protein-gated inwardly rectifying potassium channel) thallium flux, FluoZin2; at 10 µM; stronger effect = higher value; submaximal glutamate (EC20) added with thallium.
Chain of UniProt P70579 (P70579 whole entry, looked up): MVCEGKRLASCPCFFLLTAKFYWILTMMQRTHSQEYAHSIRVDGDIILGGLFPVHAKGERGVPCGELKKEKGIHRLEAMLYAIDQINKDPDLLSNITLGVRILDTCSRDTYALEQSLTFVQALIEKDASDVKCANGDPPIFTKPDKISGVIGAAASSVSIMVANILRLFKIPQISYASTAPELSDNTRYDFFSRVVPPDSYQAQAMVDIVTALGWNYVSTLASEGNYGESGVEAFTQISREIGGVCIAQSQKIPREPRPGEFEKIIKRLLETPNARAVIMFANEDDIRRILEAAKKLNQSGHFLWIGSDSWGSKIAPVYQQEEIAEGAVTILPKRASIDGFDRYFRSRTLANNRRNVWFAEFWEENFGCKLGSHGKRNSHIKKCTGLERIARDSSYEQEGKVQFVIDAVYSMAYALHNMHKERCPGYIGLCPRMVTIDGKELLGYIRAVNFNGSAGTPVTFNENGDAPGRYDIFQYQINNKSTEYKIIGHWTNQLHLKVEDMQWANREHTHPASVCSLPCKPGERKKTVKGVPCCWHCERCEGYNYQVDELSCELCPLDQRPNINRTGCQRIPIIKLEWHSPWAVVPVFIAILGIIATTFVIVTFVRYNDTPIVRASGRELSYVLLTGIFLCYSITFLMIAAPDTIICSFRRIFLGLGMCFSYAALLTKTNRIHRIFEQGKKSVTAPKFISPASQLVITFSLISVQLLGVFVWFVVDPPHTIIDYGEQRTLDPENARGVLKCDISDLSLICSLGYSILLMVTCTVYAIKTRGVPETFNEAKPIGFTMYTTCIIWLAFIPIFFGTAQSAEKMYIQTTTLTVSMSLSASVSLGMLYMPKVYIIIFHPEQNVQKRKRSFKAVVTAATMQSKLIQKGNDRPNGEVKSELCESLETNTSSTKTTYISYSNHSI
CCOCCCNC(=O)C(NC(=O)CNC(=O)c1ccccc1)c1ccc(C)cc1 (centres undefined) showed a z-score of -0.197.
Compound COc1ccc(CCNC(=O)CCNS(=O)(=O)c2cccc3nonc23)cc1OC has a z-score of -0.484.
Compound Cc1cccc2sc(N(CCCN(C)C)C(=O)CCc3ccccc3)nc12 has a z-score of -0.976.
Work on CN(Cc1cccs1)C(=O)CCc1ccc(S(=O)(=O)N2CCOCC2)cc1 yielded a z-score of 0.00198.
For Cc1ccccc1Cn1c(-c2cncs2)nc2ccccc21, the z-score was -2.34.
Compound Cc1ccc2nc(SCCC(=O)O)cc(C)c2c1 has a z-score of -0.26.
Compound O=C1CC(=C(c2ccccc2)c2ccccc2)C(=O)N1CCN1CCN(c2cccc(Cl)c2)CC1 has a z-score of -0.173.
Compound CCOC(=O)c1[nH]c(=O)[nH]c1CSc1nc(C)cc(C)n1 has a z-score of 0.156.
With Cc1ccccc1NC(=S)N(CCN(C)C)C(C)c1ccco1 (centres undefined) the z-score was 0.0508.
For Cc1ccc2[nH]c(=O)c(C3C(C#N)=C(N)Oc4c3ccc3cccnc43)cc2c1 (centres undefined), the z-score was -1.28.
Oc1ccc(/C=N/Nc2nc(-c3ccc(Cl)cc3)cc(C(F)(F)F)n2)cc1 showed a z-score of -0.242.
CCCC(c1nnnn1C(C)(C)CC)N(Cc1ccco1)Cc1cc2ccc(OC)cc2[nH]c1=O (centres undefined) showed a z-score of -0.316.
With O=C(COc1ccc2ccccc2c1CN1CCOCC1)N1CCc2ccccc21 the z-score was -0.374.
With COc1ccc(/C=N/NC(=S)Nc2cccc(C(=O)O)c2)cc1OC the z-score was 0.163.
COCC(=O)Nc1nnc(-c2cccs2)s1 gave a z-score of 0.0659.
In the case of O=C(NC1CCCC1)c1ccccc1-c1nc2ccccc2[nH]1, the z-score is reported as 0.586.
Cc1ccc(CNC(=O)c2sc3ccc(S(=O)(=O)N4CCCCC4)cc3c2N)cc1 gave a z-score of -0.557.
In the case of Cc1ccccc1C(=O)N1CCC(C(N)=O)CC1, the z-score is reported as -0.33.
Compound CCc1ccccc1N/C(=N\S(=O)(=O)c1ccccc1)C(F)(F)F has a z-score of -1.38.
With C=CCOn1c(C)c(C(C)=O)c2c3nonc3ccc21 the z-score was -1.21.
CCOC(=O)CC(=O)Nc1ccccc1C(=O)O gave a z-score of 0.215.
COc1ccccc1Nc1nnc(C)c(=O)[nH]1 gave a z-score of -0.361.
CCC(=O)N1CCc2cc(Br)cc(S(=O)(=O)C3(C(=O)OC)CC3)c21 showed a z-score of -0.206.
With CCN1C(=O)c2cccc3c(S(=O)(=O)Nc4ncccc4C)ccc1c23 the z-score was 0.148.
Compound COCCNC(=O)C(=O)N/N=C/c1ccccc1C(F)(F)F has a z-score of -0.508.
With Clc1ccc(Cn2cc(/C=N/n3cnnc3)c3ccccc32)c(Cl)c1 the z-score was -0.0895.
In the case of CC(C)(C)n1ncc2c(=O)n(CC(=O)NCc3ccccc3Cl)cnc21, the z-score is reported as 1.14.
Work on Cc1nnc(SCC(=O)N2CCC(c3noc4ccc(F)cc34)CC2)s1 yielded a z-score of -0.216.
With C=CCn1c(=S)[nH]c2nc3c(cc2c1=O)COC(C)(C)C3 the z-score was 1.16.
CCOC(=O)c1cc[n+](CC(=O)c2ccc(F)cc2)cc1 gave a z-score of -0.651.
With CCNc1nc(NC(C)C)nc(OCCOC(=O)c2ccccc2)n1 the z-score was -0.946.
COc1ccc(NS(=O)(=O)c2ccc(N3CCCC3)c(NC(=S)Nc3cccc(S(=O)(=O)N(C)C)c3)c2)cc1 was tested, and the z-score was -0.0112.
Compound CC(c1ccco1)N(C(=O)c1ccc(S(=O)(=O)N2CCCCC2)cc1)c1ccccn1 (centres undefined) has a z-score of -0.0399.
In the case of CCOC(=O)CNC(=S)N(Cc1cccs1)C1CCCCC1, the z-score is reported as -1.11.
Work on O=C(NCc1ccccc1)c1noc2c1CCCCC2 yielded a z-score of -0.0478.
Compound COc1cccc(NCc2ccc([N+](=O)[O-])s2)c1 has a z-score of -0.0495.
Compound COc1ccc(-c2csc(N3CCC(c4ccccc4)C3)n2)cc1 (centres undefined) has a z-score of -0.0339.
CCOc1ccc2nc(NC(=O)C(NS(=O)(=O)c3cccs3)C(C)C)sc2c1 (centres undefined) was tested, and the z-score was 0.454.
Work on O=C(O)c1cccc(S(=O)(=O)Nc2ccc3oc(=O)sc3c2)c1 yielded a z-score of 0.0712.
O=c1[nH]c(CN2CCN(c3ccc(F)cc3)CC2)nc2ccccc12 gave a z-score of -0.12.
COC(=O)c1cc(Br)c(=O)n(Cc2cccnc2)c1 was tested, and the z-score was -0.555.
CN(C)c1ccc(-n2cccc2/C=N/n2cnnc2)cc1 was tested, and the z-score was -0.246.
For CC(NC(=O)CN1CCN(c2ncccn2)CC1)c1ccc(F)cc1 (centres undefined), the z-score was 0.356.
For CCOC(=O)N1CCN(C(=O)CN(c2cccc(C(F)(F)F)c2)S(C)(=O)=O)CC1, the z-score was -1.25.
COc1ccc(C2C(C(C)=O)=C(O)C(=O)N2C)c(OC)c1 (centres undefined) showed a z-score of -0.23.
CC(C)CN(C(=O)CN1CCOCC1)c1c(N)n(CC(C)C)c(=O)[nH]c1=O gave a z-score of -0.179.
Compound COC(=O)c1ccccc1NC(=O)c1ccccc1N(C)S(=O)(=O)c1ccccc1 has a z-score of -0.0709.
Compound CCCCCn1c(SCC(=O)c2ccccc2)nc2cc(C(=O)NCc3ccco3)ccc2c1=O has a z-score of -0.157.
CCOc1ccc(-c2nnc(-c3cccs3)o2)cc1 gave a z-score of -0.352.
With Cc1nn(-c2ccccc2)c(CC(C)(C)C(=O)O)c1C(=O)O the z-score was 0.508.
Work on CCNc1nc(NCC)n2c(SCC(=O)c3ccc(C(C)C)cc3)nnc2n1 yielded a z-score of -0.0918.
With C/C(=N\OCC(=O)Nc1ccc2c(c1)OCCO2)c1ccc2c(c1)OCCO2 the z-score was -0.144.
Compound CSc1nnc2n(-c3ccc(C)cc3)c(=O)c3c4c(sc3n12)COC(C(C)C)C4 (centres undefined) has a z-score of -0.057.
Compound CC1(C)CC(=O)c2cnc(NC(=O)Cc3ccc(Cl)cc3)nc2C1 has a z-score of -0.914.

Source: PubChem BioAssay AID488969 (Vanderbilt High Throughput Screening Facility, 2010)
